Measured values: the BET-seq Pho4 binding data (Le et al. 2018)
This is one part of the list. These are noisy estimates, calculated here from bound and input reads.

Each sequence was assayed against T1, Pho4 (S. cerevisiae) (UniProt P07270) (assay: relative binding free energy (BET-seq); higher = weaker binding). Settings: reference: library average.
T1 sequence: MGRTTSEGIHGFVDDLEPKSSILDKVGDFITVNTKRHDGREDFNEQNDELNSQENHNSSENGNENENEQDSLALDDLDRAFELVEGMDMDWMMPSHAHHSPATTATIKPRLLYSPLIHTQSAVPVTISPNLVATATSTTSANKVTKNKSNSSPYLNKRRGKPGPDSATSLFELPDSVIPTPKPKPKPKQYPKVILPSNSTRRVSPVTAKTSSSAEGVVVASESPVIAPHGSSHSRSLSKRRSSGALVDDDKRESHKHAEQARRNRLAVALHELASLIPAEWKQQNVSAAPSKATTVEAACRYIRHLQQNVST

Sequence	relative binding free energy
TGTGACACGTGCTTGA	-0.04 kcal/mol
GGTGGCACGTGGCATC	-0.08 kcal/mol
TTTTACACGTGACGTT	0.25 kcal/mol
GAAGGCACGTGGGTCG	-0.15 kcal/mol
AGGGTCACGTGAGTAC	0.15 kcal/mol
GTGTTCACGTGGCTTG	0.2 kcal/mol
GATAGCACGTGCCGGG	0 kcal/mol
GTTAGCACGTGAACGT	0.3 kcal/mol
AGGAACACGTGGTGTC	-0.06 kcal/mol
AGCGACACGTGAGGTT	0.33 kcal/mol
TTTATCACGTGTTATC	0.17 kcal/mol
AATTACACGTGGTGTA	0.01 kcal/mol
TGTAGCACGTGAATTG	0.1 kcal/mol
ACGTGCACGTGAGGTT	0.13 kcal/mol
GGCGCCACGTGAGGAG	0.12 kcal/mol
TATCGCACGTGTCGTG	-0.03 kcal/mol
GAGATCACGTGAGTAG	0.47 kcal/mol
TGGCCCACGTGGGGCG	-0.11 kcal/mol
TTGGTCACGTGCTAAT	0.04 kcal/mol
GGTAGCACGTGGTAGA	-0.05 kcal/mol
CCGTGCACGTGGGTGT	-0.17 kcal/mol
CGGTTCACGTGTGCAG	0.12 kcal/mol
TATTACACGTGTGAAA	0.24 kcal/mol

Sequence	relative binding free energy
GGTCGCACGTGTGTGC	0.01 kcal/mol
GTGTACACGTGGAATG	0.19 kcal/mol
GGGTACACGTGAATAA	0.34 kcal/mol
TGTAACACGTGTGTAT	-0.03 kcal/mol
ACAAGCACGTGGATGG	0 kcal/mol
TGGGGCACGTGATCGC	-0.07 kcal/mol
GTGCACACGTGCGGTT	0.07 kcal/mol
AGCGGCACGTGTAGGC	0.09 kcal/mol
GTAGGCACGTGGCAGG	-0.21 kcal/mol
TACTGCACGTGGTTGT	0.05 kcal/mol
GTGTGCACGTGATTCG	-0.03 kcal/mol
CGTTCCACGTGTGAGG	0.21 kcal/mol
AAGTACACGTGCGTGT	0.06 kcal/mol
TATGACACGTGAAGAG	0.38 kcal/mol
GGAGTCACGTGTCCGG	0.09 kcal/mol
AGGATCACGTGTTTAA	0.26 kcal/mol
TGAAACACGTGTGTGC	0.07 kcal/mol
TTGATCACGTGGGGTT	-0.12 kcal/mol
TTTTTCACGTGGACAT	0.18 kcal/mol
GTTTACACGTGTATTG	0.14 kcal/mol
GTTCACACGTGGGGCA	0.02 kcal/mol
TCTAGCACGTGTGGGG	0.02 kcal/mol
GATATCACGTGGATTT	0.19 kcal/mol

Sequence	relative binding free energy
TAGATCACGTGTTGTT	0.22 kcal/mol
AATATCACGTGATTAG	0.25 kcal/mol
GGGTACACGTGTACGG	0.1 kcal/mol
CCGTTCACGTGTGGTA	0.3 kcal/mol
GTTGGCACGTGAGGAC	0.18 kcal/mol
CCAGGCACGTGAGGGT	-0.02 kcal/mol
TAGGACACGTGGGTAT	-0.05 kcal/mol
TGGAACACGTGGAGTT	0.03 kcal/mol
TGGAACACGTGGTTCG	0.06 kcal/mol
GTTAGCACGTGGTGTA	-0.12 kcal/mol
GGGTTCACGTGGCTTC	0.26 kcal/mol
GGGCACACGTGTGCGT	0.1 kcal/mol
CATATCACGTGTGTGT	0.07 kcal/mol
GATGGCACGTGATGTA	0.12 kcal/mol
AGTAGCACGTGTAATA	-0.01 kcal/mol
AGGTTCACGTGAGGTA	0.38 kcal/mol
ATGGGCACGTGGACTA	-0.1 kcal/mol
TGATGCACGTGTGGCT	-0.02 kcal/mol
GACATCACGTGTTTGT	0.1 kcal/mol
GCGTGCACGTGGTTGC	-0.06 kcal/mol
CCCGTCACGTGGGGGT	-0.06 kcal/mol
TGCTTCACGTGTCGTA	0.37 kcal/mol
AGGTGCACGTGTTAAG	0.04 kcal/mol

Sequence	relative binding free energy
TCGAACACGTGAGGGG	0.21 kcal/mol
TGCGGCACGTGATAGT	-0.16 kcal/mol
ACGGTCACGTGTGTTG	0.08 kcal/mol
CGGGTCACGTGGGGTC	0.01 kcal/mol
TGAGGCACGTGTTTGT	-0.21 kcal/mol
GAGGACACGTGACGGT	0.26 kcal/mol
GTTCTCACGTGGTTGA	0.22 kcal/mol
GAGGGCACGTGATGTC	0.1 kcal/mol
TGATACACGTGAGTAT	0.12 kcal/mol
GGTGTCACGTGGTTAA	0.13 kcal/mol
TTCCTCACGTGGGATG	0.18 kcal/mol
TTGTTCACGTGGTCTC	0.16 kcal/mol
ATTTTCACGTGGTAGT	0.22 kcal/mol
ATGGTCACGTGGAATG	0.22 kcal/mol
TGTATCACGTGGTGTC	0.04 kcal/mol
ATCAGCACGTGTGTAT	-0.03 kcal/mol
AGGGACACGTGCTGGC	0.04 kcal/mol
TCGAGCACGTGAAGTT	0.41 kcal/mol
AGTAGCACGTGCATGG	-0.1 kcal/mol
CTAGCCACGTGAGGGT	0.23 kcal/mol
TAGTTCACGTGGTTCG	0.2 kcal/mol
ATTGACACGTGTTTTC	-0.04 kcal/mol
TATGGCACGTGAGGAT	0 kcal/mol

Sequence	relative binding free energy
TGCGCCACGTGGTAGT	-0.19 kcal/mol
TGGGCCACGTGTTATA	-0.06 kcal/mol
AATTTCACGTGAAGGC	0.34 kcal/mol
TGTTACACGTGGTATA	-0.06 kcal/mol
AGTGGCACGTGATGCG	-0.04 kcal/mol
GTCAGCACGTGGGTTG	-0.19 kcal/mol
CGGTGCACGTGTTATG	-0.01 kcal/mol
TTTATCACGTGCTCGG	0.16 kcal/mol
ATCAGCACGTGGATGT	-0.06 kcal/mol
CGATACACGTGATGTT	0.26 kcal/mol
GATGTCACGTGAGCGG	0.31 kcal/mol
GATGGCACGTGAGTGG	0.23 kcal/mol
TCTTACACGTGATTAT	0.32 kcal/mol
TTAATCACGTGGGCGG	0.06 kcal/mol
TAAATCACGTGGATAT	0.21 kcal/mol
CTCGGCACGTGGTAGG	-0.34 kcal/mol
TTGGTCACGTGGTTTG	0.13 kcal/mol
GATGTCACGTGTTGTT	0.15 kcal/mol
TGATTCACGTGGAACT	0.37 kcal/mol
GAAGTCACGTGGTTGG	0.16 kcal/mol
TTATACACGTGTTCGG	-0.02 kcal/mol
GGTTACACGTGTTTCA	0.1 kcal/mol
AGTGGCACGTGCTTGT	-0.14 kcal/mol
